SMILES strings stand for the structures. About 2,200 (0.71%) of roughly 310,000 compounds showed an effect of 50% or more. Effects have a minus sign here. The list shows a part of the results.

These results are taken from article PMC4336329 (PLoS ONE, 2015).

For this assay, the target named is human ether-à-go-go-related gene (hERG) potassium channel (human, UniProt Q12809). As to the kind of experiment: primary screen, population patch clamp on CHO cells stably expressing hERG.
Sequence of human ether-à-go-go-related gene (hERG) potassium channel (Q12809 whole entry, looked up): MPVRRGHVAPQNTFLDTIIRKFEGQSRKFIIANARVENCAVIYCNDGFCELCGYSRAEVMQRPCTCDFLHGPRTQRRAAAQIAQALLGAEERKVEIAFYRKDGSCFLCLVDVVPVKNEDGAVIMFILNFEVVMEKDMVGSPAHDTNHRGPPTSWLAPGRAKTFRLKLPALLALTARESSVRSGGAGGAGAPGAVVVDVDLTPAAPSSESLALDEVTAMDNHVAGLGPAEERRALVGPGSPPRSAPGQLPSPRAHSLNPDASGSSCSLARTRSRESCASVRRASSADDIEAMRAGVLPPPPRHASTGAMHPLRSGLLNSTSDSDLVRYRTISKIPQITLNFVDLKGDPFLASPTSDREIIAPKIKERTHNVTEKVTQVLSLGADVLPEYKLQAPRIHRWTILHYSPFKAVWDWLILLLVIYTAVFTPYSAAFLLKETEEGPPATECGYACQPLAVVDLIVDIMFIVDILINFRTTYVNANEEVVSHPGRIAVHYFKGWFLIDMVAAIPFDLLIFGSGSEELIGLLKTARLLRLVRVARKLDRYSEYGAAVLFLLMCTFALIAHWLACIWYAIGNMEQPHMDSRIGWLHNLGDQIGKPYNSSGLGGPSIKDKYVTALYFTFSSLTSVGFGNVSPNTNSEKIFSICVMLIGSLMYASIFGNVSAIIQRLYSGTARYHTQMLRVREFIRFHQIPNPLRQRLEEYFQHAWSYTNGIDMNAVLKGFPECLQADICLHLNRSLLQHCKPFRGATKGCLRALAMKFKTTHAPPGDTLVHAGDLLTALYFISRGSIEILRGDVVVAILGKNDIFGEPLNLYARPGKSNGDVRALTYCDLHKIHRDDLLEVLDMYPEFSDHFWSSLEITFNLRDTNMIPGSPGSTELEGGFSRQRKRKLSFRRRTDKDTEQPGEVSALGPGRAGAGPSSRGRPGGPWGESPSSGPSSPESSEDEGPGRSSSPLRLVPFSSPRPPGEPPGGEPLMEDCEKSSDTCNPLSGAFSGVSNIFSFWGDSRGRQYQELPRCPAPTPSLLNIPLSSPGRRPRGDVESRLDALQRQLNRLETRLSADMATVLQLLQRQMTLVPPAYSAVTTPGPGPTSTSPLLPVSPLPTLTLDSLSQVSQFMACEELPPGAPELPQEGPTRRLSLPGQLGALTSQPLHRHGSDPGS
Turning to `Cc1ccc(N(C)C(=O)CCS(=O)(=O)c2ccc3c(c2)oc(=O)n3C)cc1`, the “hERG current change (%, negative = inhibition) at 1uM” value was 10.7%.
`Cc1cc2c(cc1S(=O)(=O)NCc1ccccc1Cl)OCCN2C`: the “hERG current change (%, negative = inhibition) at 1uM” value came out at 9.58%.
Then `Cc1ccc(NC(=O)C(C)Sc2nc(=O)cc(N)n2-c2ccccc2)cc1` (stereo not shown), with 8%; and `O=C(Nc1nnc(C2=COCCO2)o1)c1ccc(S(=O)(=O)N2CCCC2)cc1`, with 16.6%.
In the case of `CSc1nc(N)n(-c2cc(C(F)(F)F)ccn2)n1`, the “hERG current change (%, negative = inhibition) at 1uM” value came out at 3.77%.
Then `Cc1cc(C)nc(N/N=C/c2ccccc2OCc2ccc([N+](=O)[O-])cc2)n1`, with -5.89%.
As to `N#Cc1c2ccc([N+](=O)[O-])cc2[n+]([O-])n1-c1ccccc1`, the “hERG current change (%, negative = inhibition) at 1uM” value is 11.9%.
For `O=C(NC1CCCCC1)N1CCN(Cc2ccco2)CC1`, the “hERG current change (%, negative = inhibition) at 1uM” value is 13.9%.
In the case of `O=C(c1cccc(C(=O)N2CCN(c3ccccc3F)CC2)n1)N1CCN(c2ccccc2F)CC1`, the “hERG current change (%, negative = inhibition) at 1uM” value is given as -4.02%.
With `C#CC(C)(C)NC(=S)NC1CC2C=CC1C2` (stereo not shown), the “hERG current change (%, negative = inhibition) at 1uM” value is 9.9%.
Regarding `O=C(CSc1nnc(NC(=O)c2ccco2)s1)Nc1ccccc1`, the “hERG current change (%, negative = inhibition) at 1uM” value amounted to 7.17%.
Regarding `O=c1c(Cl)c(NCC2CCCO2)cnn1C12CC3CC(CC(C3)C1)C2` (stereo not shown), the “hERG current change (%, negative = inhibition) at 1uM” value is reported as 12.3%.
Then `Cc1cccc(Nc2c([N+](=O)[O-])cc(C(=O)N3CC(=O)Nc4ccccc43)cc2[N+](=O)[O-])c1`, with 11.8%; and `Cc1ccc(S(=O)(=O)c2c(C)cc(-c3ccccc3)[nH]c2=O)cc1`, with 6.69%.
Under `COc1ccc(CC(=O)NCCS(=O)(=O)N2CCN(c3ccc(F)cc3)CC2)cc1OC` stands -6.87%; under `O=C1/C(=C/Nc2ccc3c(c2)OCO3)CCc2ccccc21`, 6.73%; under `COc1ccc(CN2CCN(CC3CC3)CC2CCO)cc1C` (stereo not shown), 12.4%.
Take `CCC(c1nnnn1C(C)(C)C)N1CCN(c2cc(Cl)ccc2C)CC1` (stereo not shown): the “hERG current change (%, negative = inhibition) at 1uM” value was -3.8%.
As to `O=C(NNS(=O)(=O)c1ccccc1F)c1cc(-c2ccccc2)n[nH]1`, the “hERG current change (%, negative = inhibition) at 1uM” value was determined as 4.3%.
For `COc1ccc(Cn2c(=O)[nH]c3cc(C(=O)Nc4ccccc4C)ccc32)cc1`, the “hERG current change (%, negative = inhibition) at 1uM” value is 10.1%.
Under `N#CCCn1c(SCC(=O)NCc2ccco2)nc2ccccc21` stands 1.13%; under `O=C(NC(=S)Nc1cccc(Cl)c1Cl)C1CC1`, 7.61%.
On to `O=C(O)c1c(NC(=O)c2cccc3ccccc23)sc2c1CCC2`, for which the “hERG current change (%, negative = inhibition) at 1uM” value turned out to be 8.88%.
On to `CCc1ccc(NC(=O)c2noc(C(C)C)c2[N+](=O)[O-])cc1`, for which the “hERG current change (%, negative = inhibition) at 1uM” value was found to be 8.97%.
Take `COc1ccc(-n2nc(C(=O)NCC(=O)N3CCC4(CC3)OCCO4)c3ccccc3c2=O)cc1Cl`: the “hERG current change (%, negative = inhibition) at 1uM” value is 7.93%.
`COc1ccc(NC(=O)C2C3CCC(O3)C2C(=O)O)c(C)c1` (stereo not shown): the “hERG current change (%, negative = inhibition) at 1uM” value stood at 12%.
Then `CC(C)CN1CCN(Cc2ccc(Oc3ncccn3)cc2)CC1CCO` (stereo not shown), with -3.25%.
For the compound `Cc1cc(C)cc(OCc2nnc(N)s2)c1`, the “hERG current change (%, negative = inhibition) at 1uM” value came to 10.3%.
Under `COc1cc(OC)c(OC)cc1CN1CCN(Cc2ccc(SC)cc2)CC1.O=C(O)C(=O)O` stands -9.66%; under `COc1cccc(-c2ccc(C#N)c(SCC(=O)NCc3ccco3)n2)c1`, 2.49%; under `O=C(O)c1ccc(/C=N/NC(=S)NCc2ccccc2)cc1`, 15.5%.
Then `O=C(Cn1c2ccccc2c(=O)c2ccccc21)N/N=C/c1ccc(N2CCCC2)c([N+](=O)[O-])c1`, with 13.2%; and `O=[N+]([O-])c1ccccc1/C=C/C=N/Nc1ccc(S(=O)(=O)Nc2ccc(Cl)cc2)cc1[N+](=O)[O-]`, with 12.9%.
As to `CCOC(=O)N1CCN(c2c(N3CCN(c4cccc(C(F)(F)F)c4)CC3)c(=O)c2=O)CC1`, the “hERG current change (%, negative = inhibition) at 1uM” value was -3.04%.
For the compound `COc1ccc(CNC(=O)c2oc3ccc(S(=O)(=O)N4CCOCC4)cc3c2C)cc1`, the “hERG current change (%, negative = inhibition) at 1uM” value came out at 16.8%.
Under `CC(=O)Nc1ccc(S(=O)(=O)N2CCN(C(=O)N3CCCCC3)CC2)cc1` stands 15.8%.
On to `CCCCCCCc1c(C)nc(N2CCOCC2)[nH]c1=O`, for which the “hERG current change (%, negative = inhibition) at 1uM” value is -6.06%.
Then `OC12Oc3ccccc3C=C1N1CCC2CC1` (stereo not shown), with 3.5%.
Turning to `COCCN1C=C2C(=O)C(C)(OC(=O)CCC(=O)OC)C(=O)C(Br)=C2C=C1c1ccc(OC)cc1` (stereo not shown), the “hERG current change (%, negative = inhibition) at 1uM” value was 13.4%.
Then `COc1ccccc1CN(C)C(=O)c1cccc(S(=O)(=O)N2CCN(Cc3ccccc3)CC2)c1`, with -1.77%.
With `Cc1cccc(C)c1NC(=O)C1NC(=O)CC1c1ccccc1` (stereo not shown), the “hERG current change (%, negative = inhibition) at 1uM” value was 2.92%.
Under `O=c1c2ccccc2nnn1Cc1ccccc1` stands 34.9%; under `CC(OC(=O)CNC(=O)c1ccc(Cl)c([N+](=O)[O-])c1)C(=O)NCc1ccco1` (stereo not shown), 0.467%; under `CCN(CC)C(=O)CSc1nc2c(c(-c3cccnc3)c1C#N)CCCC2`, 4.97%.
Then `CC1(C)CC(NC(=O)C2CCN(S(=O)(=O)c3ccccc3C(F)(F)F)CC2)CC(C)(C)N1`, with 11.1%.
As to `O=C1NCCN/C1=C\C(=O)c1ccc(Br)cc1`, the “hERG current change (%, negative = inhibition) at 1uM” value was 10.7%.
As for `C/C=C\C=C\C(=O)Nc1cccc(C2=NOC3(C2)C[C@@H](C(N)=O)N(C(=O)C(c2ccccc2)c2ccccc2)C3)c1` (stereo partly shown), the “hERG current change (%, negative = inhibition) at 1uM” value is reported as 11.2%.
Turning to `Cc1nc2nc3c(cn2n1)C(=O)CCC3`, the “hERG current change (%, negative = inhibition) at 1uM” value was -2.94%.
Under `O=C(NCc1ccccc1Cl)C(=O)NCC1OCCN1S(=O)(=O)c1ccc(F)cc1` (stereo not shown) stands 9.53%; under `C=CCn1c(SCn2nnc3ccccc3c2=O)nnc1-c1ccc(Br)cc1`, -11.2%.
Turning to `COc1cccc(/C=C2\SC(=S)N(CCC(=O)NNC(=O)c3ccccc3OC)C2=O)c1`, the “hERG current change (%, negative = inhibition) at 1uM” value amounted to 14.8%.
With `Cc1cc(NC(=O)C2CC(c3ccc(F)cc3)=NO2)no1` (stereo not shown), the “hERG current change (%, negative = inhibition) at 1uM” value worked out at 5.41%.
For the compound `Cc1cccc(CN2C(=O)NC(c3ccccc3)(c3ccccc3)C2=O)c1`, the “hERG current change (%, negative = inhibition) at 1uM” value is recorded as 2.22%.
Then `Cc1[nH]c(C)c(S(=O)(=O)NCc2ccc(OC(C)C)cc2)c1C(=O)N1CCCC1`, with 13%; and `CC(C)(C)c1csc(N/N=C/c2ccc(O)cc2)n1`, with 14.6%; and `CCN(CC)C(=O)c1c([N+](=O)[O-])c(C(C)(C)C)nn1C`, with 11.9%.
In the case of `CCc1ccc(/C=N/NC(=O)c2ccccn2)cc1`, the “hERG current change (%, negative = inhibition) at 1uM” value was found to be 4.99%.
Then `CC(=O)c1ccc(Oc2cc(C)nc(N3CCOCC3)n2)cc1`, with 7.85%.
For `O=C(N1CCN(CCO)CC1)N1c2ccccc2C=Cc2ccccc21`, the “hERG current change (%, negative = inhibition) at 1uM” value is recorded as 13%.
Consider `O=C1CCCC(=O)N1c1ccc(N2CCN(c3ccccc3)CC2)c([N+](=O)[O-])c1`, for which the “hERG current change (%, negative = inhibition) at 1uM” value is recorded as 13.6%.
Turning to `Cc1cc(Nc2ccc(F)cc2)n2nc(C)nc2n1`, the “hERG current change (%, negative = inhibition) at 1uM” value is -6.92%.
Then `CC(C(=O)N1CC2(C)CC1CC(C)(C)C2)N1C(=O)c2ccccc2C1=O` (stereo not shown), with 12.8%; and `COc1ccccc1N1CCN(C(=O)/C=C/c2ccc3c(c2)OCO3)CC1`, with 8.32%; and `CCCN=C1NC(=O)C(CC(=O)NCCc2ccc(OC)c(OC)c2)S1` (stereo not shown), with 8.63%.
Regarding `COc1ccc(C(=O)NNC(=O)c2ccccn2)cc1`, the “hERG current change (%, negative = inhibition) at 1uM” value was found to be 14.1%.
Take `Nc1ccccc1C(=O)OCc1ccc([N+](=O)[O-])cc1`: the “hERG current change (%, negative = inhibition) at 1uM” value is reported as 14.2%.
As for `Cn1cc(C(=O)OCC(=O)Nc2ccccc2)c2ccccc21`, the “hERG current change (%, negative = inhibition) at 1uM” value came to 6.61%.
In the case of `Cc1ncc([N+](=O)[O-])n1CC(=O)NCc1ccccc1`, the “hERG current change (%, negative = inhibition) at 1uM” value turned out to be 6.08%.
With `Cn1c(C(=O)NCC2CCCO2)cc2c(=O)[nH]c3ccccc3c21` (stereo not shown), the “hERG current change (%, negative = inhibition) at 1uM” value stood at 16.1%.
For the compound `O=C(CCC1CCCN(C(=O)Cc2cccc(F)c2)C1)N1CCN(c2ccccn2)CC1` (stereo not shown), the “hERG current change (%, negative = inhibition) at 1uM” value was 10.5%.
Consider `COc1cc(OC)c(N2CC(C(=O)NCCC3=CCCCC3)CC2=O)cc1Cl` (stereo not shown), for which the “hERG current change (%, negative = inhibition) at 1uM” value worked out at 6.59%.
Under `O=C(COc1ccc(Cl)cc1)OCC(=O)N1CCCCCC1` stands 0.115%.
Turning to `Cc1c(Cl)c([N+](=O)[O-])nn1CCCC(=O)Nc1cc(Cl)ccc1Cl`, the “hERG current change (%, negative = inhibition) at 1uM” value is recorded as -10.9%.
Turning to `Cc1ccc(S(=O)(=O)N2CCOCC2)cc1C(=O)Nc1ccc(-c2cn3ccsc3n2)cc1`, the “hERG current change (%, negative = inhibition) at 1uM” value is recorded as -1.19%.
Then `CN1C(=O)CSC1=Nc1ccc(Br)cc1`, with 12.5%.
Turning to `CCCCn1c(NC(=O)c2ccccc2)nc2ccccc21`, the “hERG current change (%, negative = inhibition) at 1uM” value was 4.77%.
Under `Cn1c(SCc2ccc(Br)cc2)nnc1-c1cccs1` stands 3.25%; under `O=c1nc(N2CCCC2)nc(N2CCCC2)[nH]1`, 10.1%.
`O=C(N/N=C\c1ccc([N+](=O)[O-])o1)C1COc2ccccc2O1` (stereo not shown): the “hERG current change (%, negative = inhibition) at 1uM” value is -20.3%.
In the case of `Cc1cc(C)c2c3c(sc2n1)C(=O)N(c1ccccc1C)CC(=O)N3`, the “hERG current change (%, negative = inhibition) at 1uM” value amounted to 15%.
Take `CCCCn1cnc2c(oc3ccccc32)c1=O`: the “hERG current change (%, negative = inhibition) at 1uM” value came to 10%.
In the case of `CC(NS(=O)(=O)c1cccc(Cl)c1)C(=O)N(C)C1CCN(C)CC1` (stereo not shown), the “hERG current change (%, negative = inhibition) at 1uM” value came to 13.7%.
For the compound `O=C(NC1CC1)C1=C[C@H](C2CCCCC2)C[C@H](OCc2ccc(CO)cc2)O1`, the “hERG current change (%, negative = inhibition) at 1uM” value turned out to be 7.06%.
As to `CC(C)(C)SC(=O)C[C@@H]1NS(=O)(=O)OC2CCCCC21` (stereo partly shown), the “hERG current change (%, negative = inhibition) at 1uM” value is on record as 5.66%.
Consider `CC(C)NC(=S)N1CCN(C/C=C/c2ccccc2)CC1`, for which the “hERG current change (%, negative = inhibition) at 1uM” value was 7.73%.
Then `O=C(CN1CC=C(c2ccccc2)CC1)Nc1cc(Cl)ccc1Cl`, with -0.882%; and `S=C(NCCc1ccccc1)Nc1ccc(Br)cn1`, with 8.86%; and `Cc1cc(=O)[nH]c(SCC(=O)NCCc2ccccc2)n1`, with -3.82%.
